# Data: PubChem BioAssay AID1347417 (National Center for Advancing Translational Sciences (NCATS), 2020)
# Hit rate of the full screen: of about 120,000 compounds, about 5,300 (4.4%) were called active. The inconclusive results got no clear call from the source; some entries with a clear call stand among them for comparison. Calls follow the shape of the dose curve; as a rule, active = well fitted inhibition curve with a large enough effect; inconclusive = small, poorly fitted or top-dose-only effect; inactive = no such curve, though single readings can be large or run the other way. Where the call is inconclusive, the potency comes from a doubtful curve fit.
# Test: qHTS Primary assay for Inhibitors of Plasmodium falciparum Dd2 growth in vitro; also: nearly all actives have a fitted effect of over 65% in size
# Settings: P. falciparum Dd2 growth, SYBR Green, 72 h; series mostly up to 28.9 µM
# Method in brief: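 Infected erythrocytes (Dd2, 0.3% parasitemia, 2.5% hematocrit final) are added to compound in RPMI-1640/Albumax II medium, grown 72 h at 37C in low oxygen, then lysed with saponin/Triton-X containing SYBR Green and read by fluorescence.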
# Potency is read from the fitted curve at half-maximal effect; tags tell the direction and shape of the fitted curve.
row,SMILES,Potency
1,CC(C)CN1CCN(C(=O)c2ccc(CCC(C)(C)O)cc2)C(C)C1=O (stereo unspecified),inactive
2,COCCCNC(=O)c1ccc2c(c1)C(O)CCCCCN2C (stereo unspecified),inactive
3,Fc1cc(Br)ccc1Nc1c2c(nc3nc(-c4cccs4)nn13)CCCC2,"inconclusive: 11.2 µM [inhibitor, single point]"
4,CNC(=O)CCC[C@@H]1[C@H]2CCCN3CCC[C@@H](CN1C(=O)NCCc1ccccc1)[C@@H]23,inactive
5,N#Cc1cccc(NC(=O)CN2C(=O)NC3(CCOCC3)C2=O)c1,inactive
6,CN(C)Cc1ccccc1-c1ccc2n(c1=O)C[C@H]1C[C@@H]2CN(C(=O)c2cnccn2)C1,inactive
7,Cc1ccc(C)c(Nc2nc3c(S(=O)(=O)c4ccc(C(C)C)cc4)nnn3c3ccsc23)c1,"inconclusive: 3.98 µM [inhibitor, partial curve, poor fit]"
8,Cc1cccc(N2CCN(C(=O)c3c(C)oc4ncnc(N5CCCCC5)c34)CC2)c1C,"inconclusive: 12.6 µM [inhibitor, single point]"
9,O=C(Cn1ccn2nc(-c3ccccc3)c(CO)c2c1=O)N1CCN(c2ccccc2)CC1,"inconclusive: 6.31 µM [inhibitor, partial curve, poor fit]"
10,CCOC(=O)C1(Cc2ccc(F)cc2F)CCCN(Cc2cccc(OC)c2O)C1 (stereo unspecified),active: 3.16 µM
11,Cc1ccc2c(c1)N1C(=O)OC[C@@H]1CCN(C(=O)CC(C)C)C2,inactive
12,Cc1ccccc1CN1CCc2ncc(C(=O)NCCC(C)C)n2CC1,"inconclusive: 25.1 µM [inhibitor, single point]"
13,CNC(=O)c1cccc(-c2cnc(Nc3cccnc3)c3c2CCO3)c1,"inconclusive: 11.2 µM [inhibitor, single point]"
14,CNC(=O)CC1CCOC2(CCN(C(=O)NCc3ccc(OC)cc3)CC2)C1 (stereo unspecified),"inconclusive: 10 µM [inhibitor, single point]"
15,COCCNC(=O)CCCN1C(=O)COc2ccc(C(=O)COc3ccc(Cl)cc3C)cc21,"inconclusive: 1.78 µM [inhibitor, partial curve, poor fit]"
16,CC(C)CN1Cc2ccccc2-n2ccnc2C12CCN(C(=O)c1ccsc1)CC2,"inconclusive: 1.58 µM [inhibitor, partial curve, poor fit]"
17,COCCN1CCC2(CCC1=O)CCN(C(=O)C1CCOCC1)CC2,inactive
18,O=C(c1cn[nH]c1-n1cnnn1)N1CCn2nc(Cc3ccccc3)cc2C1,inactive
19,Cc1noc(C)c1[S+](=O)([O-])N1CCCC2(C1)C(=NC1CCCCC1)NC(=O)N2c1cccnc1 (stereo unspecified),inactive
20,Cc1cn2nc(C(=O)NCc3cc(F)cc(F)c3)cc2c(N(C)Cc2ccccc2)n1,"inconclusive: 17.8 µM [inhibitor, single point]"
21,COc1ccc(OC)c(CN2CCCC(COc3ccccc3C(=O)N3CCCC3)C2)c1 (stereo unspecified),"inconclusive: 1.58 µM [inhibitor, single point]"
22,CCOc1ccc(NC(=O)CC2C(=O)OCCN2CC)cc1 (stereo unspecified),inactive

row,SMILES,Potency
1,COc1ccc(OC)c(-n2cnc3cc(C(=O)NC4CCCCCC4)ccc32)c1,"inconclusive: 10 µM [inhibitor, partial curve, poor fit]"
2,Cc1ccccc1CCNC(=O)c1ccc2c(c1)c(C)c(C)n2Cc1ccccc1,"inconclusive: 17.8 µM [inhibitor, single point]"
3,COc1ccc(Cl)cc1N1C(=O)[C@@H]2C[C@@H](NC(=O)Cc3cccs3)CCN2C1=O,"inconclusive: 12.6 µM [inhibitor, single point]"
4,CN1CCN(C(=O)C(C)(C)Oc2nn(Cc3cccc(Cl)c3)c3ccccc23)CC1,"inconclusive: 0.891 µM [inhibitor, full curve]"
5,O=C(Nc1ccc(Cl)cc1)N1CCn2c(nn(-c3ccc([N+](=O)[O-])cc3)c2=O)C1,"inconclusive: 1.26 µM [inhibitor, partial curve]"
6,CC(C)c1cc(NCC2CCCCCN2)nc(N)n1 (stereo unspecified),inactive
7,COc1ccc(-n2nc3c(N4CCCC(C(=O)NCc5cccc(F)c5)C4)nnc(C)c3c2C)cc1 (stereo unspecified),active: 11.2 µM
8,CCN(CC)Cc1cccc(NS(=O)(=O)NCc2ccccc2)c1,"inconclusive: 12.6 µM [inhibitor, partial curve]"
9,COC[C@@H]1CN(S(=O)(=O)c2cccc(C)c2)C[C@H]1c1nc(C)no1,inactive
10,O=C(N1CCC(c2ccccc2)CC1)C1(c2ccc(Cl)cc2)CCOCC1,"inconclusive: 8.91 µM [inhibitor, partial curve, poor fit]"
11,CCc1cccc(C)c1NC(=O)Cn1c(C)cc2nc3n(c(=O)c21)CCCCC3,inactive
12,COc1ccc(-c2cc(N3CCCC(NC(=O)C4CCCCC4)C3)n[nH]2)cc1 (stereo unspecified),inactive
13,CC(C)(C)C(=O)NCCc1nc2ccccc2n1CCCCOc1ccc(Cl)cc1,"inconclusive: 12.6 µM [inhibitor, single point]"
14,COc1ccccc1CNC(=O)c1ccc2c(c1)N(Cc1cccc(Cl)c1)C(=O)c1ccccc1S2(=O)=O,"inconclusive: 11.2 µM [inhibitor, single point]"
15,COc1ccc(Cn2c(C(=O)O)c(CNCCc3cccs3)c3ccc(C)cc32)cc1,"inconclusive: 17.8 µM [inhibitor, single point]"
16,N#Cc1cccc(S(=O)(=O)N[C@H]2[C@H](O)[C@H](O)C[C@@H]2c2ccc(C(F)(F)F)cc2)c1,"inconclusive: 14.1 µM [inhibitor, single point]"
17,COCCCN1C(=O)CC[C@H]2CN(C(=O)c3scnc3C)CC[C@H]21,inactive
18,CC(=O)Nc1ccc(C(=O)NC[C@@H]2C=C(C)[C@H](CC(=O)NC3CCCC3)C[C@H]2C(C)C)cc1,"inconclusive: 10 µM [inhibitor, single point]"
19,N#Cc1ccccc1CN1CCNc2nc(CNCc3cnccn3)n(Cc3ccccc3)c2C1=O,"inconclusive: 7.08 µM [inhibitor, partial curve]"
20,CN1CC(c2ccccc2)CC2(CCN(C(=O)CCCn3ccnc3)CC2)C1 (stereo unspecified),active: 12.6 µM
21,CCn1c(CNC(=O)C23CC4CC(CC(C4)C2)C3)nnc1SCC(=O)Nc1ccccc1,"inconclusive: 17.8 µM [inhibitor, single point]"
22,Cc1ccc(C)c(OCCn2cc(C(=O)c3ccco3)c3ccccc32)c1,active: 1 µM

row,SMILES,Potency
1,OCC1(CN2CCCC2)CCN(Cc2cccc(Cn3cccn3)c2)CC1,"inconclusive: 8.91 µM [inhibitor, partial curve]"
2,CCOC(=O)c1cc(-c2ccccc2)n(-c2cccc(C(=O)Nc3ccc(OCC)cc3)c2)c1C,"inconclusive: 20 µM [inhibitor, single point]"
3,COC[C@]1(O)CCN(S(=O)(=O)c2ccccc2OC)CC1(C)C,inactive
4,Nc1cccc(-c2cn(C[C@H]3CC4CCN3C[C@@H]4C(=O)NCc3ccccc3)nn2)c1 (stereo partly specified),"inconclusive: 22.4 µM [inhibitor, single point]"
5,O=C1NC(=NC2CCCC2)C2(CCCN(CC3CCCCC3)C2)N1c1cccnc1 (stereo unspecified),"inconclusive: 11.2 µM [inhibitor, single point]"
6,O=C1NC(C(=O)N2CCCCC2)Cn2cccc21 (stereo unspecified),inactive
7,Cc1ccccc1CCC1CCCN(S(C)(=O)=O)C1 (stereo unspecified),inactive
8,CC(=O)Nc1cccc(-c2nc(-c3c(C)noc3C)cc3c2cc(C)n3CCN(C)C)c1,"inconclusive: 3.55 µM [inhibitor, partial curve]"
9,Cc1cc(OCC(=O)c2ccc3c(c2)N(CCCC(=O)NCC2CC2)C(=O)CO3)ccc1Cl,inactive
10,O=C(Nc1ccc(-c2nnc3n2CCCC3)cc1)C1CCCC1,"inconclusive: 7.94 µM [inhibitor, partial curve]"
11,O=C1CC(c2ccccc2)N(Cc2ccncc2)CCCN(C(=O)NCCc2ccccc2)CCN1 (stereo unspecified),"inconclusive: 3.98 µM [inhibitor, full curve, poor fit]"
12,CCc1ccc(NC(=O)C(CC)n2c(=O)c(C(F)(F)F)nc3ccccc32)cc1 (stereo unspecified),"inconclusive: 17.8 µM [inhibitor, single point]"
13,COC(=O)c1ccccc1NC(=O)c1c(NC(=O)c2ccco2)sc2c1CCC(C(C)(C)C)C2 (stereo unspecified),inactive
14,Cc1cc(C(=O)N(Cc2ccncc2)Cc2cccc(OCCc3ccc(F)cc3)c2)n(C)n1,"inconclusive: 20 µM [inhibitor, single point]"
15,COc1ccc(C(=O)N2CCc3nc(OCC4CC4)ccc3C2)cn1,"inconclusive: 7.94 µM [inhibitor, partial curve, poor fit]"
16,CC(=O)Nc1ccc(NC(=O)CSc2nccn2C)cc1,inactive
17,CCOc1ccc(C(=O)N2CCN(C(=O)c3nnn4c3COC(c3ccc(Cl)cc3)C4)CC2)cc1 (stereo unspecified),"inconclusive: 10 µM [inhibitor, single point]"
18,CCOc1ccc(CN2CCCC23Cc2ccccc2CNC3=O)cc1 (stereo unspecified),"inconclusive: 17.8 µM [inhibitor, single point]"
19,O=C(Nc1ccc2n(c1=O)C[C@H]1C[C@@H]2CN(C(=O)NC2CCCCC2)C1)c1ccco1,"inconclusive: 31.6 µM [inhibitor, single point]"
20,CCOC(=O)c1cc2c(=O)n3ccccc3nc2n(CC(C)C)c1=NC(=O)c1c(-c2c(F)cccc2Cl)noc1C,"inconclusive: 17.8 µM [inhibitor, single point]"
21,Cc1cccc(CNC(=O)c2cc3n(n2)CC(c2ccc4c(c2)OCO4)OC3)c1 (stereo unspecified),"inconclusive: 17.8 µM [inhibitor, single point]"
22,COC[C@@H]1CN(C(=O)CC(C)C)C[C@H]1c1nc(C)no1,inactive
